Data: ChEMBL document CHEMBL4888484, “Replenishing the malaria drug discovery pipeline: Screening and hit evaluation of the MMV Hit Generation Library 1 (HGL1) against asexual blood stage Plasmodium falciparum ,using a nano luciferase reporter read-out” (2022)
About 540 (0.36%) of roughly 150,000 compounds showed an effect of 50% or more. Some of the results follow.

Test system: Plasmodium falciparum
Test: Primary screen in NF54 nanoGlo assay, in single point, at 2uM, 72h; a lower Z score goes with more inhibition
Format: functional, Erythrocyte
Conditions: timepoint 72 hour

| Compound | % Inhibition | Z score |
| --- | --- | --- |
| Cc1ncn(CCNc2cccc(C(=O)N(C)C)n2)c1C | -9% | 1.27 |
| COC(=O)Cc1cccc2cnccc12 | -5% | 0.7 |
| C[C@H](NC(=O)Cc1cccc(O)c1)c1ccc(-n2ccnn2)cc1 | -3% | 0.55 |
| COc1ccc(-c2nc3cnccn3c2Nc2ccc3c(c2)OCCO3)cc1OC | -3% | 0.49 |
| Cc1cc2c(cc1-c1cn(CCN(C)S(C)(=O)=O)nn1)OCO2 | -9% | 0.83 |
| CCN(CC)C(=O)c1cn([C@H]2CC[C@@H](NC(=O)c3ccc(NC(C)=O)cc3)CC2)nn1 | 13% | -1.62 |
| O=C(Cc1cnn(-c2ccccc2)c1)NC[C@H]1CCCO1 | -3% | 0.48 |
| COc1ncc(CN2CCCC[C@@H]2CCc2cccc(O)c2)cn1 | -6% | 0.94 |
| O=C(Cc1cscn1)N1CC2(CCOCC2)CC[C@@H]1CO | -4% | 0.49 |
| CC1COC(c2ccccc2)C(C)N1Cc1cccc(O)c1 (stereo not drawn) | -3% | 0.52 |
| CCCc1cnc(C)nc1-c1ccc(C(=O)N2CCc3n[nH]cc3C2)cc1 | -5% | 1.01 |
| CCCOCC(=O)N1CC[C@]2(OC)CC[C@@H](Oc3ccccn3)C[C@H]12 | -16% | 1.58 |
| CCCc1cc(C(=O)Nc2ccc3c(c2)OCO3)no1 | -1% | 0.22 |
| Cc1ccc([C@H](C(=O)Nc2ccc(C(C)C)cc2)N(Cc2ccco2)C(=O)Cc2cc3ccccc3[nH]2)cc1 | -16% | 3.07 |
| N#CCC(=O)N(CC(F)(F)F)C1CC1 | -19% | 2.89 |
| CCOC(=O)N1CCN(C(=O)c2ccc(=O)n(C)n2)CC1 | -2% | 0.26 |
| CCCCOCCN(Cc1nnsc1Cl)c1cccc(Br)c1 | -12% | 1.48 |
| O=C(c1ccccc1)N1CCC(c2nc(-c3ccncc3)cs2)CC1 | -2% | 0.2 |
| CC(CC(=O)O)CC(=O)N1CC(C)CC(C)C1 (stereo not drawn) | 38% | -5.45 |
| O=C(NCCc1nccs1)[C@H](O)c1cccc(F)c1 | 9% | -1.28 |
| CCC#CCN1CCC[C@H](CNC(=O)c2ccon2)C1 | -4% | 0.89 |
| CCCN(C)C(=O)C(=O)Nc1cccc(C#Cc2ccccn2)c1 | -12% | 2.27 |
| Cn1c(C#N)ccc1C(=O)N1CCOCC12CCCC2 | -11% | 2.09 |
| CN(C)c1ccc(CN2CCCC[C@@H]2CCN2CCCC2=O)cn1 | -11% | 1.36 |
